# Data from PubChem BioAssay AID686979 (National Center for Advancing Translational Sciences (NCATS), 2013).
# Screen size: about 420,000 compounds; about 50,000 (12%) were called active. Inconclusive results, whose numbers are uncertain, are shown with a selection of clear calls. Calls come from the whole dose curve; as a rule, active = well fitted inhibition curve with a large enough effect; inconclusive = small, poorly fitted or top-dose-only effect; inactive = flat fitted curve, though single readings scatter. Potencies of inconclusive entries are left out as doubtful fits.
# Experiment: qHTS for Inhibitors of human tyrosyl-DNA phosphodiesterase 1 (TDP1): qHTS in cells in presence of CPT; note: nearly all actives have a fitted effect of over 55% in size
# Conditions: chicken DT40 Tdp1-/-;hTDP1 cells + 20 nM CPT, ATP luminescence, 48 h; series mostly up to 46.2 µM
# Procedure, shortened: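 Chicken DT40 Tdp1-/- cells stably complemented with human TDP1 were seeded at 400 cells/well in medium containing 20 nM camptothecin, exposed to pin-transferred compounds, and grown at 37 °C for at least 48 hr. Viability was read as ATP luminescence.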
# Potency is the fitted concentration of half-maximal effect; tags give direction and shape of the fitted curve.
row,Structure (SMILES),Potency
1,O=[N+]([O-])c1cccnc1N1CCC(c2cc(-c3cccc(C(F)(F)F)c3)n[nH]2)CC1,"inconclusive [inhibitor, single point]"
2,Cc1ccc(Nc2nc(N)nc(CN3CCN(c4ccccc4)CC3)n2)cc1Cl,"inconclusive [inhibitor, single point]"
3,O=C(Nc1ccc(Cl)cc1)C1Cc2c(-c3ccc(Cl)cc3)ccnc2O1 (configuration not stated),active: 23.1 µM
4,CCOC(=O)Nc1ccc2c(CN(C)Cc3ccc(F)cc3)cc(=O)oc2c1,"inconclusive [inhibitor, partial curve, poor fit]"
5,CCN1C(c2ccccc2)=C(c2ccccc2)S/C1=C/C=C1\SC(=S)N(C)C1=O,active: 10.3 µM
6,Cc1ccc(CSc2nnc(-c3ccccn3)n2Cc2cccs2)cc1,"inconclusive [inhibitor, single point]"
7,COc1ccc2nc(NC(=O)CCNS(=O)(=O)c3ccc4c(c3)oc(=O)n4C)sc2c1,inactive
8,Cc1nnc(SCC2=C(C(=O)O)N3C(=O)C(NC(=O)Cn4nc(C)c(Cl)c4C)C3SC2)s1 (configuration not stated),inactive
9,COc1cc(OC)cc(C(=O)N2CCN(C(=O)c3cccnc3)CC2)c1,inactive
10,Cc1cccc(NC(c2ccccc2C)c2ccc3ccc(C)nc3c2O)n1 (configuration not stated),"inconclusive [inhibitor, single point]"
11,CNc1ccc2ncc(-c3ccc(OC)c(OC)c3)n2n1,active: 2.59 µM
12,CCC(C)NC(=O)Cn1c(=O)sc2ccccc21 (configuration not stated),inactive
13,O=C(CSc1n[nH]c(=O)[nH]c1=O)N/N=C/C=C/c1ccccc1,inactive
14,CCOC(=O)N1CCN(CC(O)COc2ccccc2C(C)(C)C)CC1 (configuration not stated),"inconclusive [inhibitor, single point]"
15,COC(=O)c1c(-c2cccs2)csc1NC(=O)c1ccc(OC)c(OC)c1,active: 11.6 µM
16,NNC(=O)c1ccc(CSc2n[nH]c(=O)[nH]c2=O)cc1,inactive
17,CCN1/C(=C/c2ccc3ccccc3[n+]2CC)C=Cc2ccccc21,active: 1.64 µM
18,COc1ccc(F)cc1C(=O)C1CCCN(C(=O)c2cccc(N(C)C)c2)C1 (configuration not stated),"inconclusive [inhibitor, single point]"
19,O=S(=O)(NCc1cc(-c2ccccc2Cl)no1)c1ccc(Cl)cc1,"inconclusive [inhibitor, single point]"
20,O=C(Cc1ccc2c(c1)OCCO2)N/N=C/c1ccco1,inactive
21,O=C(NCc1ccc2c(c1)OCO2)C1CC(=O)N(CCc2ccc(Cl)cc2)C1 (configuration not stated),inactive
22,Cn1nc(C(=O)OCC(=O)Nc2cccc(S(=O)(=O)N3CCCC3)c2)c2ccccc2c1=O,inactive
